{"source": "the supplement of paper PMC8728848", "binders": {"B1": {"name": "ASA (Allium sativum) (protein)", "chain": "KAHEKERMGRNTPSAKLMSIAAVAAILTILASTCMARNLLTNGEGLYAGQSLNVEPYHFIMQEDCNLVLYDHSTAVWATNTDIPGKKECRAVLQSDGNFVVYDADGRPLWASHSVRGNGNYVLVLQEDGNVVIYGSDIWSTGTYVKAARGPVVVAMNGTVDGGSLIRPVIVNKNHVPVIRKVGTLSRNILRNDEGLYAGQSLDVEPYHFIMHEDCNLVLYDHSTAVWASNTDIPGKKGCKAVLQSDGNFVVYDAEGRSLWASHSVRGNGNYVLVLQEDGNVVIYGSDIWSTDTYRKSARGPVIRKVGTLAGAA"}}, "test_in_all_cases": "glycan array binding signal (z-score within array); higher = stronger binding", "settings_in_all_cases": "glycan notation: IUPAC condensed, linker removed", "key": {"[1]": {"molecular_target": "Gal(b1-4)GlcNAc(b1-3)[Gal(b1-4)GlcNAc(b1-6)]GalNAc", "outline": "(§1)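 The binding signal is a Z-score computed within each array. Data were drawn from 3228 arrays in the Consortium for Functional Glycomics database, restricted to those with a known protein sequence. Scores were averaged over arrays of the same protein sequence at different concentrations or buffers, and over linkers, and negative values can be taken as non-binding.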"}, "[2]": {"molecular_target": "Gal(b1-4)GlcNAc(b1-6)GalNAc", "outline": "as §1"}, "[3]": {"molecular_target": "Gal(b1-4)GlcNAc(b1-6)[Gal(b1-3)]GalNAc", "outline": "as §1"}, "[4]": {"molecular_target": "Gal(b1-4)GlcNAc(b1-6)[Gal(b1-3)]GlcNAc", "outline": "as §1"}, "Gal3S(b1-3)GalNAc": {"molecular_target": "Gal3S(b1-3)GalNAc", "outline": "as §1"}, "Gal3S(b1-3)GlcNAc": {"molecular_target": "Gal3S(b1-3)GlcNAc", "outline": "as §1"}, "[5]": {"molecular_target": "Gal3S(b1-3)[Fuc(a1-4)]GlcNAc", "outline": "as §1"}, "Gal3S(b1-4)Glc": {"molecular_target": "Gal3S(b1-4)Glc", "outline": "as §1"}, "Gal3S(b1-4)Glc6S": {"molecular_target": "Gal3S(b1-4)Glc6S", "outline": "as §1"}, "Gal3S(b1-4)GlcNAc": {"molecular_target": "Gal3S(b1-4)GlcNAc", "outline": "as §1"}, "Gal3S(b1-4)GlcNAc6S": {"molecular_target": "Gal3S(b1-4)GlcNAc6S", "outline": "as §1"}, "Gal3S6S(b1-4)GlcNAc": {"molecular_target": "Gal3S6S(b1-4)GlcNAc", "outline": "as §1"}, "Gal3S6S(b1-4)GlcNAc6S": {"molecular_target": "Gal3S6S(b1-4)GlcNAc6S", "outline": "as §1"}, "Gal4S(b1-4)GlcNAc": {"molecular_target": "Gal4S(b1-4)GlcNAc", "outline": "as §1"}, "Gal4S6S(b1-4)GlcNAc": {"molecular_target": "Gal4S6S(b1-4)GlcNAc", "outline": "as §1"}, "Gal6S(b1-4)Glc": {"molecular_target": "Gal6S(b1-4)Glc", "outline": "as §1"}, "Gal6S(b1-4)Glc6S": {"molecular_target": "Gal6S(b1-4)Glc6S", "outline": "as §1"}, "Gal6S(b1-4)GlcNAc": {"molecular_target": "Gal6S(b1-4)GlcNAc", "outline": "as §1"}, "GalNAc(a1-3)Gal": {"molecular_target": "GalNAc(a1-3)Gal", "outline": "as §1"}, "GalNAc(a1-3)GalNAc": {"molecular_target": "GalNAc(a1-3)GalNAc", "outline": "as §1"}, "[6]": {"molecular_target": "GalNAc(b1-3)Gal(a1-4)Gal(b1-4)GlcNAc", "outline": "as §1"}, "GalNAc(b1-4)GlcNAc": {"molecular_target": "GalNAc(b1-4)GlcNAc", "outline": "as §1"}, "Glc(a1-4)Glc": {"molecular_target": "Glc(a1-4)Glc", "outline": "as §1"}, "Glc(a1-6)Glc(a1-6)Glc": {"molecular_target": "Glc(a1-6)Glc(a1-6)Glc", "outline": "as §1"}, "Glc(b1-4)Glc": {"molecular_target": "Glc(b1-4)Glc", "outline": "as §1"}, "Glc(b1-6)Glc": {"molecular_target": "Glc(b1-6)Glc", "outline": "as §1"}, "GlcA(b1-3)Gal": {"molecular_target": "GlcA(b1-3)Gal", "outline": "as §1"}, "GlcA(b1-6)Gal": {"molecular_target": "GlcA(b1-6)Gal", "outline": "as §1"}, "[7]": {"molecular_target": "GlcNAc(a1-3)Gal(b1-4)GlcNAc", "outline": "as §1"}, "[8]": {"molecular_target": "GlcNAc(a1-6)Gal(b1-4)GlcNAc", "outline": "as §1"}, "[9]": {"molecular_target": "GlcNAc(b1-2)Gal(b1-3)GlcNAc", "outline": "as §1"}, "[10]": {"molecular_target": "GlcNAc(b1-2)Man(a1-3)[GlcNAc(b1-2)Man(a1-6)]Man(b1-4)GlcNAc(b1-4)GlcNAc", "outline": "as §1"}, "GlcNAc(b1-3)Gal": {"molecular_target": "GlcNAc(b1-3)Gal", "outline": "as §1"}, "[11]": {"molecular_target": "GlcNAc(b1-3)Gal(b1-3)GalNAc", "outline": "as §1"}, "GlcNAc(b1-3)Gal(b1-4)Glc": {"molecular_target": "GlcNAc(b1-3)Gal(b1-4)Glc", "outline": "as §1"}, "[12]": {"molecular_target": "GlcNAc(b1-3)Gal(b1-4)GlcNAc", "outline": "as §1"}, "[13]": {"molecular_target": "GlcNAc(b1-3)Gal(b1-4)GlcNAc(b1-3)Gal(b1-4)GlcNAc", "outline": "as §1"}}, "note": "The other results are listed elsewhere or left out.", "data": [{"binder": "B1", "values": [{"measurement": "glycan array binding signal (z-score)", "setting": "[1]", "result": -0.173}, {"measurement": "glycan array binding signal (z-score)", "setting": "[2]", "result": -0.212}, {"measurement": "glycan array binding signal (z-score)", "setting": "[3]", "result": -0.205}, {"measurement": "glycan array binding signal (z-score)", "setting": "[4]", "result": -0.217}, {"measurement": "glycan array binding signal (z-score)", "setting": "Gal3S(b1-3)GalNAc", "result": -0.229}, {"measurement": "glycan array binding signal (z-score)", "setting": "Gal3S(b1-3)GlcNAc", "result": -0.196}, {"measurement": "glycan array binding signal (z-score)", "setting": "[5]", "result": -0.162}, {"measurement": "glycan array binding signal (z-score)", "setting": "Gal3S(b1-4)Glc", "result": -0.217}, {"measurement": "glycan array binding signal (z-score)", "setting": "Gal3S(b1-4)Glc6S", "result": -0.184}, {"measurement": "glycan array binding signal (z-score)", "setting": "Gal3S(b1-4)GlcNAc", "result": -0.218}, {"measurement": "glycan array binding signal (z-score)", "setting": "Gal3S(b1-4)GlcNAc6S", "result": -0.214}, {"measurement": "glycan array binding signal (z-score)", "setting": "Gal3S6S(b1-4)GlcNAc", "result": -0.207}, {"measurement": "glycan array binding signal (z-score)", "setting": "Gal3S6S(b1-4)GlcNAc6S", "result": -0.166}, {"measurement": "glycan array binding signal (z-score)", "setting": "Gal4S(b1-4)GlcNAc", "result": -0.219}, {"measurement": "glycan array binding signal (z-score)", "setting": "Gal4S6S(b1-4)GlcNAc", "result": -0.222}, {"measurement": "glycan array binding signal (z-score)", "setting": "Gal6S(b1-4)Glc", "result": -0.201}, {"measurement": "glycan array binding signal (z-score)", "setting": "Gal6S(b1-4)Glc6S", "result": -0.199}, {"measurement": "glycan array binding signal (z-score)", "setting": "Gal6S(b1-4)GlcNAc", "result": -0.191}, {"measurement": "glycan array binding signal (z-score)", "setting": "GalNAc(a1-3)Gal", "result": -0.197}, {"measurement": "glycan array binding signal (z-score)", "setting": "GalNAc(a1-3)GalNAc", "result": -0.22}, {"measurement": "glycan array binding signal (z-score)", "setting": "[6]", "result": -0.2}, {"measurement": "glycan array binding signal (z-score)", "setting": "GalNAc(b1-4)GlcNAc", "result": -0.151}, {"measurement": "glycan array binding signal (z-score)", "setting": "Glc(a1-4)Glc", "result": -0.227}, {"measurement": "glycan array binding signal (z-score)", "setting": "Glc(a1-6)Glc(a1-6)Glc", "result": -0.228}, {"measurement": "glycan array binding signal (z-score)", "setting": "Glc(b1-4)Glc", "result": -0.209}, {"measurement": "glycan array binding signal (z-score)", "setting": "Glc(b1-6)Glc", "result": -0.234}, {"measurement": "glycan array binding signal (z-score)", "setting": "GlcA(b1-3)Gal", "result": -0.212}, {"measurement": "glycan array binding signal (z-score)", "setting": "GlcA(b1-6)Gal", "result": -0.218}, {"measurement": "glycan array binding signal (z-score)", "setting": "[7]", "result": -0.228}, {"measurement": "glycan array binding signal (z-score)", "setting": "[8]", "result": -0.222}, {"measurement": "glycan array binding signal (z-score)", "setting": "[9]", "result": -0.222}, {"measurement": "glycan array binding signal (z-score)", "setting": "[10]", "result": -0.204}, {"measurement": "glycan array binding signal (z-score)", "setting": "GlcNAc(b1-3)Gal", "result": -0.224}, {"measurement": "glycan array binding signal (z-score)", "setting": "[11]", "result": -0.204}, {"measurement": "glycan array binding signal (z-score)", "setting": "GlcNAc(b1-3)Gal(b1-4)Glc", "result": -0.216}, {"measurement": "glycan array binding signal (z-score)", "setting": "[12]", "result": -0.23}, {"measurement": "glycan array binding signal (z-score)", "setting": "[13]", "result": -0.23}]}]}
